# Measurements published in PubChem BioAssay AID1768 (National Center for Advancing Translational Sciences (NCATS), 2009).
# Several values for one entry are separate records, joined by “and”; a condition that tells them apart may be missing. Identical values can stand only once. The whole screen tested about 270,000 compounds, of which about 620 (0.23%) were called active. The inconclusive results got no clear call from the source; some entries with a clear call stand among them for comparison. The call rests on the fitted dose curve; in most records, active means well fitted inhibition curve with a large enough effect in the polarisation, with a control signal flat (not every such curve was filed as active); inconclusive means small, poorly fitted or top-dose-only effect, or effect the other way, or a change in a side signal; inactive means no such curve, though single readings can be large or run the other way; the % refers to the polarisation. Potencies beside an inconclusive call are fits to weak or partial responses and may not hold up. A note “side channel” means that the fit belongs to a control or component signal, not to the main read-out.
# Target: Menin (Homo sapiens) (UniProt O00255)
# Chain of UniProt O00255 (O00255 whole entry, looked up): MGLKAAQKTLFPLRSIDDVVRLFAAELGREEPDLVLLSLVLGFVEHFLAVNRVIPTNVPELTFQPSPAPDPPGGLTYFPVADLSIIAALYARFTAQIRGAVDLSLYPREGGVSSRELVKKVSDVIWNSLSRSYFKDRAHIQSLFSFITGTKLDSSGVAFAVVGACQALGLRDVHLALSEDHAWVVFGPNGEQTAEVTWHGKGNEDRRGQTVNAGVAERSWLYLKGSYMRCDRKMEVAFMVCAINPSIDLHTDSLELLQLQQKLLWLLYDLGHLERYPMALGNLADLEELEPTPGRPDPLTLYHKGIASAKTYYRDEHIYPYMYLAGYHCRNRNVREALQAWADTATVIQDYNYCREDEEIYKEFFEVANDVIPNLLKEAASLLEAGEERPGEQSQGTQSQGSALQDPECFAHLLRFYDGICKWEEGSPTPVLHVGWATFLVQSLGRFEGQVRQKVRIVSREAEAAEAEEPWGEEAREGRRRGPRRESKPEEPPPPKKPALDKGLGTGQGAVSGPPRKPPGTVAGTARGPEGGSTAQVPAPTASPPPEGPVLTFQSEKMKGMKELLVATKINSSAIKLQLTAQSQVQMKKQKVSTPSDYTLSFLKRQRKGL
# Test: qHTS Assay for Inhibitors Targeting the Menin-MLL Interaction in MLL Related Leukemias: Competition With Texas Red Labeled MLL-derived Mutant Peptide; on FP activity change, negative = inhibition: % of control where 0% means no effect
# Conditions: fluorescence polarization; FP activity change, negative = inhibition: at 61.6 µM (top of the series)
# Potency means the concentration at half of the fitted maximal effect; tags describe the fitted curve by direction and shape or compound fluorescence and quenching.
Structure (SMILES),"FP activity change, negative = inhibition",Potency
COc1ccc2c(C)c(Cc3ccccc3)c(=O)oc2c1OC,inactive: -20.1%,–
O=C(NC(=S)Nc1ccc(-c2ccc(CO)o2)cc1)c1cccs1,–,"inconclusive: 7.08 µM [quencher, side channel, partial curve]"
COc1ccccc1NC(=O)CSc1nnc(-c2ccoc2C)n1CCc1ccccc1,–,"inconclusive: 1.26 µM [fluorescent, side channel, full curve]"
CCc1c(C)nc2ncnn2c1NC1CCCc2ccccc21 (centres undefined),–,"inconclusive: 7.08 µM [fluorescent, side channel, partial curve]"
S=C(NCc1cccs1)Nc1ccc(Cl)cc1,–,"inconclusive: 31.6 µM [quencher, side channel, single point]"
CN1/C(=C/C(=O)C2CC2)C(C)(C)c2ccccc21,–,"inconclusive: 14.1 µM [fluorescent, side channel, partial curve]"
COc1ccc(C(CCNCc2ccc(N(C)C)cc2)c2ccccc2OC)cc1 (centres undefined),–,"inconclusive: 2.24 µM [fluorescent, side channel, full curve]"
COc1ccc(C(C(=O)NCCC(C)C)N(CCCO)C(=O)c2snc(C(N)=O)c2N)cc1OC (centres undefined),–,"inconclusive: 35.5 µM [inhibitor, single point]"
COCc1c(C(=O)N2CCN(Cc3c(F)cccc3Cl)CC2)oc2ccccc12,–,"inconclusive: 5.01 µM [fluorescent, side channel, partial curve]"
O=C(Nc1ccc(Br)cc1)c1ccc(N2C(=O)C3CCCCC3C2=O)cc1 (centres undefined),–,"inconclusive: 22.4 µM [inhibitor, partial curve]"
Cc1oc(-c2cccs2)nc1CN1CCN(C2CCCC2)C(CCO)C1 (centres undefined),inactive: 0.619%,–
O=C(N/N=C/c1cccc([N+](=O)[O-])c1)c1cccc(Br)c1,–,"inconclusive: 39.8 µM [quencher, side channel, partial curve]"
CN1CCCc2cc(C=O)ccc21,–,"inconclusive: 28.2 µM [inhibitor, single point]"
CSc1nc2ccc(NC(=O)c3ccc(F)c(F)c3)cc2s1,–,"inconclusive: 22.4 µM [quencher, side channel, single point]"
COc1ccc(Nc2nc(N)nc(CSC(=S)N3CCOCC3)n2)cc1,inactive: 13.3%,–
COCCOC(=O)C1=C(C)NC(C)=C(C(=O)OC/C=C/c2ccccc2)C1c1cccc([N+](=O)[O-])c1 (centres undefined),–,"inconclusive: 10 µM [quencher, side channel, full curve] and inconclusive: 1.78 µM [quencher, side channel, full curve]"
Cc1cccc(N=Nc2c(N)n[nH]c2N)c1,–,"inconclusive: 17.8 µM [quencher, side channel, single point]"
N=c1ccn(Cc2cccc(Cl)c2)cc1,inactive: -1.08%,–
COC(=O)c1ccc(OC(=O)c2cccs2)cc1,inactive: 1.21%,–
COc1ccc(-c2nn(-c3ccccc3)cc2/C=C2/SC(=S)N(CCC(=O)O)C2=O)c(C)c1,–,"inconclusive: 3.98 µM [quencher, side channel, partial curve]"

Structure (SMILES),"FP activity change, negative = inhibition",Potency
O=C(CNC(=O)c1ccc(Br)cc1)NCC(=O)OCC(=O)c1ccccc1,–,"inconclusive: 31.6 µM [fluorescent, side channel, single point]"
c1ccc(Nc2ccc3c4c(cccc24)CC3)cc1,–,"inconclusive: 12.6 µM [quencher, side channel, partial curve]"
Cc1ccc2nc(SCC(=O)c3c(C)[nH]c4ccccc34)[nH]c2c1,–,"inconclusive: 7.08 µM [quencher, side channel, single point]"
Cc1ccnc(Sc2ccc([N+](=O)[O-])cc2[N+](=O)[O-])n1,–,"inconclusive: 17.8 µM [quencher, side channel, partial curve]"
N#Cc1cc([N+](=O)[O-])ccc1NC(=O)COC(=O)CCC1CCCCC1,–,"inconclusive: 14.1 µM [quencher, side channel, partial curve]"
COc1cc2oc(=O)cc(-c3ccc(-c4ccc(NC(C)=O)cc4)cc3)c2c(OC)c1OC,inactive: 43.2%,–
CC1=C(C(=O)O)N2C(=O)[C@@H](NC(=O)[C@@H](N)c3ccc(O)cc3)[C@@H]2SC1,inactive: 7.11% [at 24.8 µM],–
Cc1ccc(Cl)cc1N1CCN(C(=O)CSc2ccsc2[N+](=O)[O-])CC1,–,"inconclusive: 14.1 µM [quencher, side channel, partial curve]"
COc1cc(NC(C)=O)c2ncccc2c1[N+](=O)[O-],inactive: -7.24%,–
C=C1CCC[C@]2(C)C[C@H]3OC(=O)C(CNC(C)CCCC(C)C)[C@H]3CC12 (some centres undefined),–,"inconclusive: 10 µM [fluorescent, side channel, partial curve]"
Cc1ccc(C2Nc3cccc4cccc(c34)N2)s1,–,"inconclusive: 11.2 µM [quencher, side channel, partial curve]"
COC(=O)c1cn(-c2ccc(F)cc2)c(=O)c2ccccc12,–,"inconclusive: 20 µM [fluorescent, side channel, partial curve, poor fit]"
COc1ccc(Cc2nnc(NC(=O)c3ccc(Cl)c([N+](=O)[O-])c3)s2)cc1,–,"inconclusive: 25.1 µM [quencher, side channel, partial curve]"
CCCN1CCC(NC(=O)Nc2ccc(Br)cc2)CC1,–,"inconclusive: 3.16 µM [inhibitor, full curve]"
COc1cccc(C(=O)Nc2cccc(C(=O)NC3=NN(c4c(Cl)cc(Cl)cc4Cl)C(=O)C3)c2)c1,–,"inconclusive: 7.94 µM [quencher, side channel, partial curve]"
Cc1nn(Cc2ccc(Cl)cc2)c(C)c1NC(=O)Cn1nc([N+](=O)[O-])c(Cl)c1C,–,"inconclusive: 28.2 µM [quencher, side channel, single point]"
COc1ccc(/C=C2\SC(=O)NC2=S)cc1OC,–,"inconclusive: 15.8 µM [quencher, side channel, partial curve]"
CC1(C)Cc2c(C#N)c(NC3CCCCC3)nc(-c3ccco3)c2CO1,–,"inconclusive: 31.6 µM [quencher, side channel, single point]"
Cc1ccc(S(=O)(=O)Nc2ccc(Nc3ccccc3)cc2)cc1,–,"inconclusive: 22.4 µM [quencher, side channel, partial curve]"
CCC(C)Sc1nc2c(c(=O)[nH]c(=O)n2C)n1Cc1ccc(Cl)cc1 (centres undefined),–,"inconclusive: 17.8 µM [fluorescent, side channel, partial curve]"

Structure (SMILES),"FP activity change, negative = inhibition",Potency
S=C(Nc1ccccc1)Nc1nc2ccccc2n1CCOc1ccccc1,–,"inconclusive: 25.1 µM [quencher, side channel, partial curve]"
O=C(NCCCn1ccnc1)c1cc(-c2ccncc2)nc2ccccc12,inactive: 6.26%,–
O=C(Nc1ccccc1)C(=O)c1c[nH]c2ccccc12,–,"inconclusive: 39.8 µM [inhibitor, single point]"
COc1ccc(CCNCc2ccc(OCc3ccccc3)cc2)cc1,–,"inconclusive: 39.8 µM [inhibitor, single point]"
CC(C)c1ccc(CNc2ccc([N+](=O)[O-])cn2)cc1,–,"inconclusive: 12.6 µM [quencher, side channel, partial curve]"
O=C(NN1C(=O)c2cc(Br)ccc2NC1c1cc(Br)cc(Br)c1O)c1ccncc1 (centres undefined),–,"inconclusive: 22.4 µM [quencher, side channel, partial curve]"
N=c1c(C(=O)NC2CCCC2)cc2c(=O)n3ccccc3nc2n1Cc1ccccc1,inactive: -7.23%,–
CCc1cccc(OCC(=O)Nc2ccc(S(=O)(=O)Nc3onc(C)c3C)cc2)c1,–,"inconclusive: 14.1 µM [quencher, side channel, partial curve]"
CCOC(=O)C1CCN(C(=O)Cc2c(F)cccc2Cl)CC1,–,"inconclusive: 1.41 µM [inhibitor, full curve, poor fit]"
Cc1ccc(S(=O)(=O)N(C)CC(=O)O/N=C(\N)c2ccc([N+](=O)[O-])cc2)cc1,–,"inconclusive: 35.5 µM [quencher, side channel, single point]"
CCN(CC)CCOC(=O)c1ccc(N/C=C(/C#N)c2nc(-c3cc4ccccc4oc3=O)cs2)cc1,–,"inconclusive: 39.8 µM [inhibitor, single point]"
Cc1ccccc1OCc1occc1C(=O)Nc1cccc(-n2cnnn2)c1,–,"inconclusive: 3.55 µM [quencher, side channel, full curve]"
Cc1onc(-c2ccccc2Cl)c1C(=O)NC1C(=O)N2C1SC(C)(C)C2C(=O)O (centres undefined),inactive: 14.7%,–
CCC(c1nnnn1CCOC)N(Cc1ccc(C)cc1)Cc1cc2cc(OC)ccc2[nH]c1=O (centres undefined),–,"inconclusive: 2.24 µM [fluorescent, side channel, partial curve]"
COc1ccc(CCNC(=O)C2CC(=O)N(c3ccccc3)C2)cc1OC (centres undefined),inactive: -22.1%,–
COc1ccc(-c2c3c([nH]c(=S)c2C#N)CCC3)cc1,–,"inconclusive: 31.6 µM [quencher, side channel, single point]"
O=C(NCCn1cc(SCc2ccccc2)c2ccccc21)c1c(F)cccc1F,–,"inconclusive: 10 µM [quencher, side channel, partial curve]"
O=C(Cc1coc2ccc3ccccc3c12)Nc1nccs1,–,"inconclusive: 7.94 µM [quencher, side channel, full curve]"
COc1cccc(=O)c2c(C)n(CC(=O)c3ccccc3)c(C)c12,–,"inconclusive: 35.5 µM [quencher, side channel, single point]"
